Experimental data reported in PubChem BioAssay AID2675 (National Center for Advancing Translational Sciences (NCATS), 2010).
Out of some 280,000 compounds screened, about 100 (0.036%) were called active. The inconclusive results got no clear call from the source; some entries with a clear call stand among them for comparison. Calls come from the whole dose curve; as a rule, active = well fitted inhibition curve with a large enough effect in the signal ratio, with a control signal flat (not every such curve was filed as active); inconclusive = small, poorly fitted or top-dose-only effect, or effect the other way, or a change in a side signal; inactive = no such curve, though single readings can be large or run the other way; the % refers to the signal ratio. Potencies beside an inconclusive call are fits to weak or partial responses and may not hold up. “Side channel” marks fits to a control or component signal instead of the main read-out.

target: Muscleblind-like protein 1 (Homo sapiens) (UniProt Q9NR56); assay: qHTS Assay for Inhibitors of MBNL1-poly(CUG) RNA binding; details: TR-FRET MBNL1-His/biotin-(CUG)12 binding, 665/545 ratio; activity change, negative = inhibition: at 57.5 µM (top of the series)
UniProt Q9NR56, sequence (Q9NR56 whole entry, looked up): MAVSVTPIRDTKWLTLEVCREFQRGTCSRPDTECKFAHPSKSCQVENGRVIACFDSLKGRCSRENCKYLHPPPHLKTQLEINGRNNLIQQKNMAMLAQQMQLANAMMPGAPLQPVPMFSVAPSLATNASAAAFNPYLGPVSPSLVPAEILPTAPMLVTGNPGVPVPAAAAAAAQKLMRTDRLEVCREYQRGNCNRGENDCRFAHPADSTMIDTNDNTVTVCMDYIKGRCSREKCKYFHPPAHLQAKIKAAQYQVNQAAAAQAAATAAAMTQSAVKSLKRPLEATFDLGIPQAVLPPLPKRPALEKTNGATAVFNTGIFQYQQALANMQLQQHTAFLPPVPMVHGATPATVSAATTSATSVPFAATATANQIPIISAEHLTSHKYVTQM
How it was run: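 Ratiometric TR-FRET (665 over 545 nm, excitation 340 nm) tracks disruption of MBNL1-His/biotin-(CUG)12 complex after 60 min at room temperature, with compounds at 92 nM to 58 uM final.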
% is set by controls: 0 for no effect and ±100 for the full control effect; potency is the fitted concentration of half-maximal effect; tags give direction and shape of the fitted curve or compound fluorescence and quenching.

Structure (SMILES) | Potency | activity change, negative = inhibition
O=C(Nc1ccc(N2CCOCC2)c(Cl)c1)c1ccc([N+](=O)[O-])o1 | inconclusive: 1.12 µM [quencher, full curve] | 
NC(=O)C1CCN(C(=O)CN2CCCc3ccccc32)CC1 | inconclusive: 39.8 µM [quencher, side channel, single point] | 
O=C(O)c1cccnc1Sc1ccccc1 | inconclusive: 7.08 µM [fluorescent, side channel, full curve, poor fit] | 
Nc1scc2c(C(=O)N/N=C/c3ccc(Cl)cc3)nn(-c3ccccc3)c(=O)c12 | inconclusive: 11.2 µM [quencher, side channel, partial curve] | 
Cc1ccc(/C(O)=C2/C(=O)C(=O)N(CCN3CCOCC3)C2c2ccccn2)cc1 (configuration not stated) | inconclusive: 12.6 µM [quencher, side channel, partial curve] | 
COc1cc2c(cc1OC)C(c1ccc(-c3ccc(Cl)c(Cl)c3)o1)=NCC2 | inconclusive: 28.2 µM [quencher, side channel, partial curve] | 
COc1ccc(C(NC(C)=O)c2cc(Cl)c3cccnc3c2O)cc1 (configuration not stated) |  | inactive: 32.1%
Cc1ccc(S(=O)(=O)n2cnc3cc([N+](=O)[O-])ccc32)cc1C | inconclusive: 25.1 µM [quencher, side channel, single point] | 
Nc1ccc(C(=O)OCC(=O)Nc2cc([N+](=O)[O-])ccc2F)cc1 | inconclusive: 15.8 µM [quencher, side channel, partial curve] | 
COc1ccc(CC(CC(=O)O)C(=O)NCc2ccccc2)cc1 (configuration not stated) |  | inactive: -6.28%
O=C(N/N=C/c1cc([N+](=O)[O-])ccc1O)c1cccc(N2CCCC2=O)c1 | inconclusive: 12.6 µM [quencher, side channel, partial curve] | 
NC(=O)COC(=O)c1ccc2c(c1)C(=O)N(Cc1ccco1)C2=O | inconclusive: 7.08 µM [quencher, partial curve] | 
COCCN(C(=O)Nc1ccc(OC)cc1)c1nc2ccccc2s1 |  | inactive: -5.19%
COc1ccc(CCNC(=O)CCC(=O)Nc2ccccc2[N+](=O)[O-])cc1OC | inconclusive: 10 µM [quencher, side channel, partial curve] | 
CCOc1cccc(/C=C(/C#N)c2nc3ccccc3[nH]2)c1OCC(=O)O |  | inactive: -14.7%
CC(=Nc1ccc(O)cc1)c1sc2ccccc2c1O | inconclusive: 4.47 µM [quencher, side channel, single point] | 
c1ccc(N=C(c2cccs2)N2CCOCC2)cc1 | inconclusive: 79.4 µM [inhibitor, single point] | 
Cc1cccn2c(=O)c3cc(C(=O)NCc4ccco4)c(=N)n(C4CCCC4)c3nc12 | inconclusive: 11.2 µM [quencher, side channel, partial curve] | 
CN(C)CCn1c(NC(=O)c2ccc(Cl)cc2)nc2ccccc21 |  | inactive: 2.65%
COc1cc2cc3c(N)c(C(=O)NCc4ccco4)sc3nc2cc1OC | inconclusive: 14.1 µM [quencher, partial curve] | 
CCOC(=O)c1cc2c(nc1NC(=S)Nc1ccccc1)CC(C)(CC)OC2 (configuration not stated) | inconclusive: 0.0126 µM [fluorescent, side channel, full curve] | 

Structure (SMILES) | Potency | activity change, negative = inhibition
N/C(=N\O)c1ccc(Oc2ccccc2Cl)c([N+](=O)[O-])c1 | inconclusive: 31.6 µM [quencher, side channel, single point] | 
Cc1ccc2[nH]c(=O)c(CN(CCCO)S(=O)(=O)c3cccc4nsnc34)cc2c1 | inconclusive: 14.1 µM [quencher, side channel, partial curve] | 
CC(C)(C)c1ccc(OCCNC(=S)Nc2ccccc2)cc1 |  | inactive: -1.07%
CCCn1c(N2CCN(C(=O)Nc3ccccc3)CC2)nc2ccccc21 |  | inactive: -3.57%
O=C(NCCCN1CCN(c2ccc(F)cc2)CC1)c1cccc(N2CCCC2=O)c1 | inconclusive: 0.631 µM [quencher, side channel, single point] | 
N#Cc1ccc(-c2ccccc2)nc1SCCN1CCOCC1 | inconclusive: 6.31 µM [quencher, side channel, single point] | 
O=C(CCC(=O)N(CC(=O)NC1CCCC1)Cc1ccccc1Cl)Nc1nccs1 |  | inactive: -1.58%
COc1cccc2c1OCC(C(=O)O)C2 (configuration not stated) |  | inactive: -4.9%
CCOc1ccc(C(=O)N/N=C/c2cc([N+](=O)[O-])cs2)cc1 |  | inactive: 91.1%
COc1ccc(Cl)cc1C(=O)NCC(c1ccco1)N1CCCC1 (configuration not stated) |  | inactive: -1.05%
O=C(CCN1CCN(C(c2ccccc2)c2ccccc2)CC1)N/N=C/c1ccc(O)cc1 |  | inactive: 6.14%
COC(=O)CCC(=O)c1oc2ccc(OC)cc2c1N | inconclusive: 22.4 µM [quencher, single point] | 
O=C(COc1ncnc2ccccc12)Nc1ccc(Cl)c([N+](=O)[O-])c1 | inconclusive: 3.16 µM [quencher, side channel, full curve] | 
COc1ccc2c(c1)c(N=O)c(O)n2C | inconclusive: 20 µM [quencher, side channel, partial curve] | 
COc1ccc(S(=O)(=O)N2CCN(C(=O)c3cc(-c4ccc(Br)cc4)n[nH]3)CC2)cc1OC |  | inactive: -2.81%
Cc1cccc2c(C(=O)n3cccn3)cc(-c3ccccc3Cl)nc12 | inconclusive: 0.1 µM [fluorescent, side channel, full curve] | 
O=C(CSc1nc2ccccc2o1)c1cc2ccccc2oc1=O | inconclusive: 39.8 µM [quencher, single point] | 
CC(=O)Nc1ccc2c(c1)C(=O)N(c1cccc3ccccc13)C2=O | inconclusive: 25.1 µM [quencher, single point] | 
CN1CCC(N(C)CC(=O)Nc2cccc(Oc3ccccc3)c2)CC1 |  | inactive: -5.12%
COc1ccccc1N1CCN(S(=O)(=O)c2c(C)ccc3nsnc23)CC1 | inconclusive: 14.1 µM [quencher, partial curve] | 
CCOC(=O)C(C)N1C(=O)S/C(=C/c2cc(C)n(-c3ccncc3)c2C)C1=O (configuration not stated) | inconclusive: 39.8 µM [quencher, side channel, single point] | 
